Measured values taken from PubChem BioAssay AID2546 (National Center for Advancing Translational Sciences (NCATS), 2010).
In all, about 310,000 compounds went through this assay and about 11,000 (3.5%) were called active. Inconclusive results, whose numbers are uncertain, are shown with a selection of clear calls. Calls come from the whole dose curve; as a rule, active = well fitted inhibition curve with a large enough effect; inconclusive = small, poorly fitted or top-dose-only effect, or effect the other way; inactive = flat fitted curve, though single readings scatter. Potencies of inconclusive entries are left out as doubtful fits.

Experiment: VP16 counterscreen qHTS for inhibitors of ROR gamma transcriptional activity;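 note: Gal4-VP16 expression switched on by copper sulfate through the metallothionein promoter; nearly all actives have a fitted effect of over 50% in size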
Conditions: Drosophila S2 Gal4-VP16 UAS-luciferase, luminescence, 20 h; activity, negative = inhibition: at 53.6 µM (top of the series)
% is set by controls: 0 for no effect and ±100 for the full control effect; potency is the fitted concentration of half-maximal effect; tags give direction and shape of the fitted curve.

Compound | activity, negative = inhibition | Potency
CC(=O)OC[C@H]1O[C@@H](O/N=C\[C@@H](C)[C@H](OCc2ccccc2)C(C)C)[C@H](OC(C)=O)[C@@H](OC(C)=O)[C@H]1OC(C)=O | inactive: -0.711% [at 10 µM] | 
C=C(C)Cn1c(CN(C)Cc2ccccc2)nc2c1c(=O)n(C)c(=O)n2C |  | inconclusive [inhibitor, single point]
C=C1C[C@]23CC[C@H]4C(CO)(CO)C[C@@H](O)C[C@@]4(C)[C@@H]2CC[C@H]1C3 |  | inconclusive [inhibitor, single point]
O=C(c1cnn2c(C(F)(F)F)cc(-c3ccc(F)cc3)nc12)N1CCc2ccccc2C1 |  | inconclusive [inhibitor, single point]
COc1ccc(NC(=O)CCS(=O)(=O)c2ccc(OC)cc2)cc1 |  | inconclusive [inhibitor, single point]
O=C(NC1(C(F)(F)F)NC(=O)N(Cc2cccnc2)C1=O)c1cccs1 (centres undefined) | inactive: 10.8% | 
O=c1c2ccccc2nc2c3ccccc3c(NCCN3CCOCC3)nn12 |  | active: 20 µM
COc1ccc(-c2csc(NC(=O)COc3ccc(N(C)S(=O)(=O)c4ccc(C)cc4)cc3)n2)cc1 | inactive: -2.57% | 
O=C(Nc1ccc(Cl)cn1)C1CCCN(c2ncnc3c2nc2n3CCCCC2)C1 (centres undefined) | inactive: 1.51% | 
Cc1nc(S/C(=C\c2ccc(OCc3ccccc3Cl)cc2)C(=O)O)n[nH]1 |  | inconclusive [inhibitor, full curve]
O=C(Nc1ccc(Cl)cc1)/C(=C/c1ccc([N+](=O)[O-])cc1)c1nc2ccccc2s1 |  | active: 5.01 µM
CCCOC(=O)c1ccc(Oc2cn[nH]c2-c2ccc(OCC)cc2O)cc1 |  | inconclusive [inhibitor, single point]
Fc1ccc(NC(=S)Nc2ccccc2N2CCOCC2)cc1Cl |  | inconclusive [inhibitor, single point]
O=C(O)C(C(=O)/C=C/c1ccco1)=C1SCCS1 | inactive: 8.11% | 
CCCS/C(N)=N/N=C/c1ccccc1O |  | active: 1.41 µM
C/C(=C\C(=O)c1ccccc1)NNc1nc2ccccc2s1 |  | inconclusive [inhibitor, single point]
CC(C)(C)c1ccc(-n2ncc3c2CCCC3NC(=O)CCCn2cncn2)cc1 (centres undefined) |  | inconclusive [inhibitor, single point]
O=C(CNC(=O)C(c1ccccc1)c1ccccc1)OCC(=O)c1cccs1 | inactive: -28.7% | 
Cc1nn(C)c(C(=O)N/N=C/c2ccc(C(F)(F)F)cc2)c1[N+](=O)[O-] |  | inconclusive [inhibitor, single point]
Fc1ccc(CSc2nnc(-c3cnccn3)n2Cc2ccco2)cc1 |  | inconclusive [inhibitor, single point]
COc1ccc(-c2cn3cc(C(=O)NN)ccc3n2)cc1 |  | active: 10 µM
CCCc1ccc(C(=O)NC(=O)c2ccccc2O)cc1 |  | active: 1.58 µM
Cc1cccc(NC(=S)N/N=C/c2ccc(Cl)c([N+](=O)[O-])c2)c1 |  | active: 3.98 µM
CC(Nc1cccc2ccccc12)C(=O)N/N=C/c1ccc([N+](=O)[O-])cc1 (centres undefined) |  | active: 14.1 µM
CCOC(=O)C1(Cc2cccc(Cl)c2)CCCN(C(=O)CN2C(=O)CSC2=O)C1 (centres undefined) |  | inconclusive [activator, single point]

Compound | activity, negative = inhibition | Potency
CC(=NCCc1ccccc1)C1=C(O)CSC1=O |  | inconclusive [activator, single point]
CCOC(=O)C1CCN(S(=O)(=O)c2cccc(-c3cn4cc(C)ccc4n3)c2)CC1 |  | active: 17.8 µM
COc1ccc(/C=N/Nc2c(Cl)cc(Cl)cc2Cl)cc1CN1CCOCC1 | inactive: 2.89% | 
Cc1ccc(N2C(=O)CC(Nc3ccc(Cl)c(S(=O)(=O)N(C)C)c3)C2=O)c(C)c1 (centres undefined) | inactive: 4.62% | 
Cc1cccc(C)c1NC(=S)N/N=C/c1ccc(OCCC(C)C)cc1 |  | active: 2.82 µM
COc1ccccc1-c1n[nH]c2c1[C@H](C)CC[C@H]2C(C)C |  | active: 12.6 µM
Cc1ccc2oc3c(c(=O)c2c1)C(c1cccc(O)c1)N(c1ccccn1)C3=O (centres undefined) |  | inconclusive [inhibitor, single point]
Cc1cc(C)n(-c2nc(C)nc(NCc3ccccc3)n2)n1 |  | active: 5.62 µM
Cc1ccc(C(=O)/C=C/c2cn(CN3CCN(C)CC3)c3ccccc23)cc1 |  | inconclusive [inhibitor, single point]
COC(=O)c1ccc(NC(=S)NCC2CC2)cc1 |  | inconclusive [inhibitor, partial curve]
O=C(/C=C/c1ccccc1)NC(=O)c1ccccc1O |  | inconclusive [inhibitor, single point]
CCOC(=O)c1ccc(NC(=O)COc2ccccc2CNCCc2ccccc2)cc1 |  | inconclusive [inhibitor, partial curve, poor fit]
NC(=O)c1c(NC(=O)c2c(F)cccc2F)sc2c1CCN(Cc1ccccc1)C2 | inactive: -6.08% | 
COC(=O)C1=C(CN2CCc3ccccc32)NC(=O)NC1c1cc(C)ccc1C (centres undefined) | inactive: 2.07% | 
CCCCOc1ccc(C(=O)NCC2(c3ccc(OC)cc3)CCOCC2)cc1 |  | inconclusive [activator, single point]
O=C(Nc1ncc2c(n1)-c1ccccc1OC2)c1ccc(F)cc1 | inactive: -7.82% | 
Cc1csc(NC(=O)CSc2nc(C(C)C)nc3c2c(=O)n(C)c(=O)n3C)n1 |  | inconclusive [inhibitor, single point]
CC(OC(=O)c1ccc([N+](=O)[O-])s1)C(=O)Nc1ncc(Cl)cc1Cl (centres undefined) |  | inconclusive [inhibitor, single point]
Cc1ncc([N+](=O)[O-])n1CC(=O)Nc1ccc2c(c1)OCO2 | inactive: 9.26% | 
COc1ccc2nc(NC(=O)c3cccc(-c4cc5ccccc5oc4=O)c3)sc2c1 |  | active: 10 µM
CCC(C)(C)n1nnnc1C(c1ccc(C)cc1)N(Cc1ccco1)Cc1cccs1 (centres undefined) |  | inconclusive [inhibitor, single point]
NC(=O)C1CCN(C(=O)CN(C2CCCCC2)S(=O)(=O)c2ccc(F)cc2)CC1 | inactive: 2.34% | 
CCOC(=O)c1sc(NC(=O)CSc2n[nH]c(-c3ccc(Cl)cc3Cl)n2)c(C#N)c1C |  | inconclusive [inhibitor, single point]
C/C(=N\NC(=S)Nc1c(C)cccc1C)c1cc2ccccc2o1 |  | active: 7.08 µM
CN1C(=O)c2ccc(N3CCCC3)cc2C1=O |  | inconclusive [inhibitor, single point]

Compound | activity, negative = inhibition | Potency
CCC1(c2ccc(F)cc2)NC(=O)N(CC(=O)Nc2cc(S(=O)(=O)N(C)C)ccc2Cl)C1=O (centres undefined) | inactive: 1.95% | 
CCOC(=O)c1cnc(-n2nc(C)cc2C)nc1N1CCOCC1 |  | active: 11.2 µM
CC(C)Cn1c(N)c(C(=O)COC(=O)Cc2cccs2)c(=O)n(C)c1=O |  | inconclusive [inhibitor, single point]
CC(C)(C)NC(=O)C(c1ccco1)N(C(=O)Cn1nnc(-c2ccc(F)cc2)n1)c1ccccc1F (centres undefined) | inactive: 4.59% [at 0.365 µM] | 
Cc1cc(C(C)(C)CC(C)(C)C)ccc1OCCOCC[N+](C)(C)Cc1ccccc1 |  | active: 17.8 µM
COc1ccc(CNC(=O)Cn2ncn3c(cc4ccccc43)c2=O)cc1 | inactive: 2.26% | 
N#C/C(=C\c1ccccc1)c1ccccn1 |  | inconclusive [activator, partial curve]
O=C(COc1ccc(Cl)cc1Cl)NNC(=S)NC(=O)c1ccco1 |  | inconclusive [inhibitor, single point]
CCn1cc(C(=O)N2CCN(c3ccc(C(C)=O)cc3)CC2)c2cc(OC)c(OC)cc2c1=O | inactive: -7.97% | 
COc1ccc(-c2nnc(SC(C)C(=O)Nc3nccs3)n2-c2ccccc2)cc1OC (centres undefined) |  | inconclusive [inhibitor, partial curve]
O=c1c2ccccc2[nH]c(=S)n1CCN1CCc2ccccc2C1 |  | inconclusive [inhibitor, single point]
Cc1cccc(CN2CCc3c([nH]c4ccccc34)C2)c1 | inactive: -0.628% | 
Cc1cc(C)cc(NC(=S)/C(=C(\[O-])c2ccc(Cl)cc2Cl)[n+]2ccccc2)c1 | inactive: 9.42% | 
CCC[N+]1(CC#CCC(c2ccccc2)c2ccccc2)CCCCC1 | inactive: -2.52% | 
Cc1cc2nc(-c3ccc(NC(=O)C(C)C)cc3)oc2cc1C |  | inconclusive [inhibitor, full curve]
O=C1C=Cc2ccccc2/C1=C/c1[nH]c(=O)[nH]c1O |  | inconclusive [inhibitor, single point]
O=C(Cc1ccc([N+](=O)[O-])cc1)N1N=C(C2CC2)CC1(O)C(F)(F)F (centres undefined) |  | inconclusive [inhibitor, single point]
O=C(O)CC(c1cccc([N+](=O)[O-])c1)N1Cc2ccccc2C1=O (centres undefined) | inactive: 0.24% | 
COC(=O)Cn1c(=N)n(CCN2CCCCC2)c2ccccc21 | inactive: -1.91% | 
Cc1cncc(C(=O)O)[n+]1[O-] | inactive: -5.26% | 
Nc1nonc1-n1nnc(C(=O)N/N=C/c2ccc(OCc3ccc(F)cc3)cc2)c1COc1ccccc1 |  | inconclusive [inhibitor, single point]
Cc1cc(C)c(NC(=S)NC(=O)c2ccc(-c3ccccc3)cc2)c(C)c1 |  | active: 5.62 µM
CC1CCCC(C)N1C(=O)CSc1nnc(COc2ccc(F)cc2)o1 (centres undefined) | inactive: -2.3% | 
Cc1ncsc1C(=O)NCc1ccc(N2CCCC2=O)cc1 |  | inconclusive [inhibitor, full curve]
